From PubChem BioAssay AID1454 (National Center for Advancing Translational Sciences (NCATS), 2008)
“And” between values parts separate entries of the source, which are not always exact repeats. Identical values can stand only once. The whole screen tested about 130,000 compounds, of which about 550 (0.42%) were called active. This list was built around the results that the source calls inconclusive (neither active nor inactive); the mix of calls is not that of the screen. Calls follow the shape of the dose curve; as a rule, active = well fitted inhibition curve with a large enough effect; inconclusive = small, poorly fitted or top-dose-only effect, or effect the other way; inactive = flat fitted curve, though single readings scatter. Potencies of inconclusive entries are left out as doubtful fits.

Assay: qHTS Assay for Inhibitors of the ERK Signaling Pathway using a Homogeneous Screening Assay; Stimulation with EGF; also: nearly all actives have a fitted effect of over 55% in size;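 as to activity change, negative = inhibition: plate controls were stimulated vehicle wells for no effect and unstimulated vehicle basal for full effect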
Settings: HEK293-V1b, EGF-stimulated phospho-ERK AlphaScreen; activity change, negative = inhibition: at the top concentration
In short: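 In this qHTS, HEK293 cells with stable type-1 vasopressin (V1b) receptor were exposed to compound at 37C for 30 min, stimulated 5 min with EGF at 25 nM, lysed, and probed for phospho-ERK by AlphaScreen.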
Potency is read from the fitted curve at half-maximal effect; tags tell the direction and shape of the fitted curve.

Row | Structure (SMILES) | activity change, negative = inhibition | Potency
1 | COc1ccc(NS(=O)(=O)c2cccc3cccnc23)cc1 | inactive: 8.11% | –
2 | COC(=O)C1=CN(C)C=C(C(=O)OC)C1c1ccccc1Cl | – | inconclusive [activator, single point]
3 | NS(=O)(=O)c1ccc(N=Nc2c(-c3ccccc3)[nH]n(-c3nc(-c4ccccc4)cs3)c2=O)cc1 | – | inconclusive [inhibitor, single point]
4 | CCOc1ccccc1C(=O)N/N=C/c1c[nH]c2ccccc12 | – | inconclusive [inhibitor, single point]
5 | O=C1NC(=O)c2cc(Nc3ccccc3)c(Nc3ccccc3)cc21 | – | inconclusive [inhibitor, single point]
6 | N#Cc1c(-c2ccccc2Cl)cc(-c2ccccc2)[nH]c1=S | inactive: 1.02% | –
7 | Cc1csc(SCCn2c(Br)nc3c2c(=O)[nH]c(=O)n3C)n1 | – | inconclusive [inhibitor, partial curve]
8 | O=C(O)c1cccc2c(-c3ccccc3)c(-c3ccccc3)[nH]c12 | inactive: 8.29% [at 57.5 µM] | –
9 | CCCCN(C)CCNC(=O)c1ccc(Cn2c(=S)[nH]c3ccc(Br)cc3c2=O)cc1 | inactive: 3.48% | –
10 | O=C(CSCc1ccccc1)Nc1cc([N+](=O)[O-])ccc1F | – | inconclusive [inhibitor, single point]
11 | O=[N+]([O-])c1cc([N+](=O)[O-])c2c(=Nc3ccccc3)n(-c3ccccc3)n(O)c2c1 | – | inconclusive [inhibitor, partial curve]
12 | Cc1nn(-c2ccccc2)c2c1C(c1ccc(Br)s1)C(C#N)=C(N)O2 (stereo unspecified) | – | inconclusive [inhibitor, single point]
13 | CC(=O)N1C(C)(C)CC(=NOS(=O)(=O)c2ccccc2)CC1(C)C | – | inconclusive [inhibitor, partial curve]
14 | COc1ccc(-c2nc(SC(CC(=O)NCCN3CCOCC3)c3cccs3)n[nH]2)cc1 (stereo unspecified) | – | inconclusive [inhibitor, single point]
15 | CN1CCN(C(=O)c2ccc(CS(=O)(=O)c3c(Cl)cccc3Cl)o2)CC1 | inactive: -3.9% | –
16 | Cc1nc(N2CCCCC2)sc1C(=O)c1cccc([N+](=O)[O-])c1 | – | inconclusive [inhibitor, partial curve]
17 | Cc1ccccc1C1=N/C(=C/c2cccs2)C(=O)O1 | – | inconclusive [inhibitor, single point]
18 | CC1(C)CC(=O)C2=C(C1)NC1=C(C(=O)c3ccccc31)C2c1ccc(Cl)cc1 (stereo unspecified) | – | inconclusive [inhibitor, single point]
19 | COc1ccc(C(=O)N2c3cc4c(cc3C(C)=CC2(C)C)OCO4)cc1 | – | inconclusive [inhibitor, single point]
20 | COC(=O)CCCC1=CC2=C(c3ccccc3)C(=O)C(C)(OC(=O)C3CCCC3)C(=O)C2=CN1C1CCCCC1 (stereo unspecified) | – | inconclusive [inhibitor, single point]
21 | CC(C)c1ccc(/C=C/C(=O)NC(=S)Nc2ccc(CN3CCOCC3)cc2)cc1 | – | inconclusive [inhibitor, partial curve]
22 | CCOC(=O)CSc1nc(C2CC2)cc(-c2ccc(Cl)cc2)c1C#N | – | inconclusive [activator, single point]

Row | Structure (SMILES) | activity change, negative = inhibition | Potency
23 | CCn1c(CCCc2ccc(OC)c(C)c2)n[nH]c1=S | – | inconclusive [inhibitor, partial curve]
24 | Oc1ccc2ccccc2c1N=Nc1ccc(F)cc1 | – | active: 15.8 µM and active: 12.6 µM
25 | O=C(NCc1ccco1)c1ccc(N2CCCCC2)c([N+](=O)[O-])c1 | – | inconclusive [inhibitor, single point]
26 | COc1ccc(NS(=O)(=O)c2ccc(N3CCCC3=O)cc2)cn1 | inactive: 0.17% | –
27 | COc1ccc(/C=C2\SC(=S)NC2=O)cc1OS(=O)(=O)c1ccc(NC(C)=O)cc1 | – | inconclusive [inhibitor, single point]
28 | CC(=O)c1c(C)[nH]c(C(=O)OCC(=O)Nc2ccc(Cl)c(S(=O)(=O)N(C)C)c2)c1C | – | inconclusive [inhibitor, single point]
29 | CC(=O)O[C@]1(C(C)=O)CC[C@H]2[C@@H]3C=C(Cl)C4=CC(=O)CC[C@]4(C)[C@H]3CC[C@@]21C | – | inconclusive [activator, partial curve, poor fit]
30 | Cc1nn(-c2ccccc2)c(Cl)c1/C=N/NC(N)=O | – | inconclusive [inhibitor, single point]
31 | CCN(CC)C(C)CN1c2ccccc2Sc2ccccc21 (stereo unspecified) | – | inconclusive [inhibitor, single point]
32 | O=C(c1ccccc1)c1c2c(cc3sc4ccccc4[n+]13)-c1cccc3cccc-2c13 | inactive: -0.0555% | –
33 | COc1ccc(O)c(C2=Nc3ccccc3N=C(c3ccccc3)C2)c1 | – | inconclusive [inhibitor, partial curve, poor fit]
34 | Cc1cc(C)nc(N2CCC(C(=O)NCCc3ccc(Cl)cc3)CC2)n1 | – | inconclusive [inhibitor, single point]
35 | CCN(Cc1cc(=O)n2ccsc2n1)Cc1nc2cc(OC)c(OC)cc2c(=O)[nH]1 | – | inconclusive [inhibitor, partial curve]
36 | COc1cc2c(cc1OC)OC(C)(C)C=C2 | inactive: -6.21% | –
37 | CCCCCn1nc(C)c(/C=N/NC(=O)c2ccoc2C)c1C | – | inconclusive [inhibitor, single point]
38 | Cc1nc(N2CCOCC2)c2nc(-c3ccccc3)n(CCCN3CCOCC3)c2n1 | inactive: 5.72% | –
39 | CC(=O)c1nnn(-c2ccc([N+](=O)[O-])cc2C)c1C | – | inconclusive [inhibitor, single point]
40 | O=C(Nc1csc([N+](=O)[O-])c1)Nc1ccccc1Cl | – | inconclusive [inhibitor, single point]
41 | COc1ccc2c(c1)Sc1ccccc1N2 | – | inconclusive [inhibitor, single point]
42 | S=c1[nH]nc(-c2cc(-c3ccccc3)n[nH]2)n1/N=C/C(Br)=C/c1ccccc1 | – | inconclusive [inhibitor, single point]
43 | O=C(Nc1cccc(S(=O)(=O)Nc2ccc(Cl)cc2)c1)c1ccc2c(c1)OCCO2 | – | inconclusive [inhibitor, single point]
44 | CCSc1nnc(NC(=O)C2CC(=O)N(Cc3ccccc3)C2)s1 (stereo unspecified) | – | inconclusive [inhibitor, single point]

Row | Structure (SMILES) | activity change, negative = inhibition | Potency
45 | O=C(NCCN1CCN(c2cccc(Cl)c2)CC1)c1ccc(CSc2nc3ccncc3[nH]2)cc1 | – | inconclusive [inhibitor, single point]
46 | CCCCN(CCCC)c1nc(-c2ccncc2)nc2ccccc12 | – | inconclusive [inhibitor, single point]
47 | Cn1cc(CN(CCCN2CCOCC2)C(=S)Nc2cccc(Cl)c2)c2ccccc21 | inactive: 2.2% | –
48 | COC(=O)[C@@H]1C[C@@]2(O)[C@H](O)[C@H](O)[C@H](O)C[C@H]2N1Cc1ccc(N2CCOCC2)cc1 | – | inconclusive [inhibitor, single point]
49 | CC(C)CCNC(=O)[C@H](CC(C)C)NC(=O)[C@H]1O[C@@H]1C(=O)O | – | inconclusive [inhibitor, single point]
50 | Cc1cccc(N/N=C(\C=N\N)C(=O)c2ccc(Br)cc2)c1 | – | inconclusive [inhibitor, single point]
51 | COc1ccc(C(=O)/C=C/C(=O)N(CC(=O)NCCC(C)C)Cc2cccs2)c(O)c1 | – | inconclusive [inhibitor, single point]
52 | Cc1cc(C)c2c(NC(=O)C3CC3)nn(C)c2n1 | inactive: 0.186% | –
53 | COc1ccc(CC(=O)NNC(=O)c2ccc(NC(C)=O)cc2)cc1 | – | inconclusive [inhibitor, single point]
54 | O=C(/C=C/c1ccco1)NC(=S)Nc1ccc(N2CCCC2)cc1 | – | inconclusive [inhibitor, partial curve]
55 | Brc1ccc(N/N=C(/N=Nc2nn[nH]n2)c2ccccc2)cc1 | – | inconclusive [inhibitor, single point]
56 | O=C(Nc1ccc(N2CCCCC2)cc1)c1ccccn1 | inactive: 5.25% | –
57 | COC(=O)c1ccc(C(NC(=O)OCc2ccccc2)/C(=C/[C@@H](C)C(=O)NCCc2c[nH]c3ccccc23)c2cccnc2)cc1 (stereo partly specified) | – | inconclusive [inhibitor, full curve, poor fit]
58 | CC12C(=O)OC(=O)C1(C)C1CCC2O1 (stereo unspecified) | – | inconclusive [inhibitor, single point]
59 | CC1(C)C(=O)C=C[C@@]2(C)C1C=C[C@@]1(C)C2CC[C@@]2(C)C(c3ccoc3)OC(=O)C3OC312 (stereo partly specified) | inactive: 2.6% | –
60 | Cc1cccc(C)c1-n1c(C)nn(Cc2ccc([N+](=O)[O-])cc2)c1=O | inactive: -0.108% | –
61 | CCCC(=O)NNc1c2ccccc2nc2ccccc12 | inactive: -7.67% | –
62 | CCOC(=O)C1CCN(CC(O)COCc2ccc3c(c2)OCO3)CC1 (stereo unspecified) | inactive: -2.46% [at 57.5 µM] | –
63 | CCOC(=O)C1CCN(S(=O)(=O)c2ccc(C(C)(C)C)cc2)CC1 | inactive: 0.232% | –
64 | COc1cc(NC(=O)/C=C/c2ccccc2[N+](=O)[O-])cc(OC)c1 | – | inconclusive [inhibitor, single point]
65 | CC(=O)NCCNS(=O)(=O)c1ccc(C)c([N+](=O)[O-])c1 | – | inconclusive [inhibitor, partial curve]
66 | CCCCCCCCCCOC(=O)c1csc2nnsc12 | – | inconclusive [activator, single point]
